Measurements as given in PubChem BioAssay AID488969 (Vanderbilt High Throughput Screening Facility, 2010).
In all, about 110,000 compounds were measured (“z-score”: median about -0.1, highest 2% from about 2 on). The list shows a part of the results. Calls of active or inactive are those of the source.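 How the source made its calls: active means z-score in the third read window above 3 or below -3; inactive means the rest.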

The molecules below were run against Metabotropic glutamate receptor 8 (Rattus norvegicus) (UniProt P70579) (assay: rat mGluR8 modulators via GIRK flux, primary screen, cell-based, thallium flux, HTS (AID 488969)). Conditions: HEK293 rat mGluR8, GIRK (G protein-gated inwardly rectifying potassium channel) thallium flux, FluoZin2; at 10 µM; stronger effect = higher value; submaximal glutamate (EC20) added with thallium.
Chain of UniProt P70579 (P70579 whole entry, looked up): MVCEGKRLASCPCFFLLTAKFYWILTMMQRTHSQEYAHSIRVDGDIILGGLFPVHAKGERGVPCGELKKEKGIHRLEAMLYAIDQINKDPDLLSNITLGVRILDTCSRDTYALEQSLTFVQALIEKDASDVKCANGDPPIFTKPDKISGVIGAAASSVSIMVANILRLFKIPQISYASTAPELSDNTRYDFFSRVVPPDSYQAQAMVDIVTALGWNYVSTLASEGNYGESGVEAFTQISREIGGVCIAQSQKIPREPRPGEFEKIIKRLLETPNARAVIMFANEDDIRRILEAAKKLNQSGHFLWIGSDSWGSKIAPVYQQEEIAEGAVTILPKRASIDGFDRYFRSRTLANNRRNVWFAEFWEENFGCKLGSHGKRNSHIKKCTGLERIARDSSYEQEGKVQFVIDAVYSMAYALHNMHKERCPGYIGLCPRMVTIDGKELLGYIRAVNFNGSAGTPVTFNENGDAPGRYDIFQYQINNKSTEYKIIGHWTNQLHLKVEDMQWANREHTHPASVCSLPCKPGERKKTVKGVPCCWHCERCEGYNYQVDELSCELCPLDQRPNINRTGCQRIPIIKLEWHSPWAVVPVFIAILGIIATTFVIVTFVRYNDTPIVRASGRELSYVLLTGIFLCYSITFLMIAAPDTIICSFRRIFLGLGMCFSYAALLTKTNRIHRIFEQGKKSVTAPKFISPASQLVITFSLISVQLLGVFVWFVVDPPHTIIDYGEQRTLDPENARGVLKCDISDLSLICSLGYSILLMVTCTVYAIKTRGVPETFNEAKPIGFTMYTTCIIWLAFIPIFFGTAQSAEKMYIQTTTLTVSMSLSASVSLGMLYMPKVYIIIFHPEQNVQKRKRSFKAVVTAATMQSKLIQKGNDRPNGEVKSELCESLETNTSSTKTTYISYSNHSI
CC(CCc1ccccc1)NC(=O)CN1CCOc2ccccc21 (stereo not given) showed a z-score of -0.379. CC(C)Cc1cc(C(=O)N2CCN(C(c3ccccc3)c3ccccc3)CC2)no1 showed a z-score of 0.161. For CC(C)(C)n1nnnc1C(c1ccc(Cl)cc1)N1CCCc2ccccc21 (stereo not given), the z-score was -0.368. O=C(CCN1C(=O)c2ccccc2C1=O)Nc1ccc(S(=O)(=O)N2CCOCC2)cc1 gave a z-score of 0.0303. Molecule O=C(COc1cccc2ccccc12)NNC(=O)Nc1ccccc1 has a z-score of -0.0431. Work on O=C(Nc1ccccc1N1CCCCC1)c1ccco1 yielded a z-score of -0.657. COc1ccc(-c2nc(C(F)(F)F)c(OC)o2)cc1OC was tested, and the z-score was 0.715. For O=S(=O)(Nc1ccc(N2CCCCC2)cc1)c1ccccc1, the z-score was -0.44. With COc1ccc(C2N(S(=O)(=O)c3ccc(C)cc3)CCN2S(=O)(=O)c2ccc(C)cc2)cc1 the z-score was -0.475. C/C(=N\NC(=O)c1cccc(Cl)c1)c1cccc(NC(=O)c2ccco2)c1 was tested, and the z-score was -0.35. Molecule Cc1cc(SCC(=O)N/N=C/c2ccc(O)cc2O)c(C)cc1Br has a z-score of -0.121. With O=C(c1ccco1)N1CCN(C(=O)c2cc(-c3ccccn3)nc3ccccc23)CC1 the z-score was 0.0452. Molecule Cc1cc(C(=O)CSc2nc3ccccc3[nH]2)c(C)n1CC1CCCO1 (stereo not given) has a z-score of -0.0889. O=C1NCCCC1C(=O)N/N=C/c1ccccc1 (stereo not given) gave a z-score of 0.00752. For CCN1CCN(Cc2nc3c(c(=O)n(C)c(=O)n3C)n2Cc2ccccc2Cl)CC1, the z-score was -0.373. In the case of CC(=O)OCc1nc2sc3c(c2c(=O)[nH]1)CCCC3, the z-score is reported as -0.0731. For CC(C)C(=O)OCCN=C1NS(=O)(=O)c2ccccc21, the z-score was -0.26. Cc1ccc2nc(N(CCCN(C)C)C(=O)CCc3ccccc3)sc2c1 showed a z-score of 0.103. CCCN=C(Nc1ccc(Cl)cc1)c1cccnc1 showed a z-score of -0.171. Molecule CCCOC(=O)c1ccc(NS(=O)(=O)c2cccs2)cc1 has a z-score of 0.0163. CCOC(=O)CCCNc1ccc([N+](=O)[O-])cc1[N+](=O)[O-] was tested, and the z-score was -0.257. CCn1cc(C(=O)NCc2ccc(C)o2)c2cc(OC)c(OC)cc2c1=O showed a z-score of -0.716. CCOC(=O)c1cnc2nc(COc3ccccc3)[nH]n2c1=O showed a z-score of -0.323. Cc1ccc(NC(=O)c2ccc(COc3ccc4c(c3)CCC4)cc2)c(C)c1 was tested, and the z-score was active: 3.36. Molecule COc1cccc(-c2cc(C(F)(F)F)nc(-n3cc(Cl)cn3)n2)c1 has a z-score of -0.0945. O=C(NN=C1C2CC3CC(C2)CC1C3)c1ccncc1 was tested, and the z-score was 0.281. Work on CCOc1ccc(NC(=O)CN2CCN(CC(=O)Nc3ccc(OC)cc3)CC2)cc1 yielded a z-score of -0.089. With Cc1noc(NC(=O)c2ccccc2Cl)c1C#N the z-score was 0.0343. S=C(NCCN1CCOCC1)Nc1ccc(Br)cc1 gave a z-score of -0.0801. With C=CCn1c(SCC(=O)c2c(N)n(C)c(=O)n(C)c2=O)nc2sc(CC)cc2c1=O the z-score was 1.42. In the case of CCOC(=O)c1c(C)oc2ccc(OCc3cc(C(=O)OC)oc3C)cc12, the z-score is reported as -0.239. CSC1=NSC2=NC(=O)/C(=C/c3coc4ccc(O)cc4c3=O)C(=N)N12 showed a z-score of -0.47. Molecule O=C1S/C(=C\C=C\c2ccco2)C(=O)N1c1ccc(O)cc1 has a z-score of -0.126. With CC(O)c1nc2ccccc2n1C/C=C/c1ccccc1 (stereo not given) the z-score was -0.28. For O=C(CC1S/C(=N/N=C/c2cccs2)NC1=O)Nc1ccc(Cl)cc1 (stereo not given), the z-score was -0.00056. Molecule O=C(N1CCN(c2ccccc2)CC1)C12CC3CC(CC(C3)C1)C2 has a z-score of -0.202. In the case of COc1cc2c(cc1NC(=S)Nc1cccc(C)c1)oc1ccccc12, the z-score is reported as -0.202. With O=C(Nc1ccc2c(c1)OCCO2)N1CCN(c2ccc(F)cc2)CC1 the z-score was 0.0129. COc1ccc(-c2noc(COc3ccc4ccccc4c3Br)n2)cc1OC gave a z-score of 0.294. Work on COC(=O)c1cccc(COC(=O)c2ccc(CS(=O)(=O)c3ccc(C)cc3)cc2)c1 yielded a z-score of -0.359. COc1cc2[nH]c(=O)n(Cc3ccc(C(=O)NCCCN4CCN(C)CC4)cc3)c(=O)c2cc1OC was tested, and the z-score was 0.511. CCN=C1S/C(=C\c2sccc2C)C(=O)N1CC showed a z-score of -0.0378. CC(=O)NCCC(=O)Nc1nc(-c2cccs2)c(-c2cccs2)s1 gave a z-score of -0.325. For Cc1cc(C(=O)OCC(=O)Nc2ccc(F)cc2)c(C)o1, the z-score was 2.45. For Fc1cccc(-c2cc3nc4c(c(N5CCN(c6cnccn6)CC5)n3n2)CCCC4)c1, the z-score was -0.0788. In the case of CCc1c(C#N)c(SCCC(=O)Nc2cccc(OC)c2)nc2c1C(=O)CC(C)(C)C2, the z-score is reported as -1.46. For COc1ccc(NC(=O)c2cc([N+](=O)[O-])nn2Cc2ccccc2)c(C)c1, the z-score was -0.187. COC(=O)c1ccc(CSc2nnc(Nc3ccc(OC)cc3)s2)o1 gave a z-score of 0.755. In the case of CN1CCCC1CCNC1C2CC3CC(C2)CC1C3 (stereo not given), the z-score is reported as 0.306. CCn1c(COc2ccccc2)nc2ccccc21 showed a z-score of -2.15. In the case of CC(=O)Cc1nsc(NC(=O)c2cccs2)n1, the z-score is reported as -0.0152. Cc1ccc(S(=O)(=O)CCC(=O)N2CCc3ccccc32)cc1 showed a z-score of -0.684. CCN(CC)C(=O)C(=O)c1c(-c2ccccc2)[nH]c2ccccc12 gave a z-score of -0.211. Molecule Cc1ccc(S(=O)(=O)N(C)CC(=O)Nc2cccc(C)n2)cc1 has a z-score of 0.392. O=C(c1ccc(F)cc1)c1c[nH]c(C(=O)NCCCN2CCOCC2)c1 was tested, and the z-score was 0.142. Work on CCOC(=O)C1=C(c2ccccc2)Nc2ncnn2C1c1cccc(OC)c1OC (stereo not given) yielded a z-score of -0.232. Work on CCN(CC)C(=O)CSc1nnc(-c2cccnc2)n1Cc1ccccc1 yielded a z-score of -0.0129. COc1cc2c(cc1OC)C(C1C(=O)CCCC1=O)N(C(=O)CCl)CC2 (stereo not given) was tested, and the z-score was -0.173. Work on CCCCNC(=O)C1CCCN(S(=O)(=O)c2ccc(S(=O)(=O)NCC(C)C)cc2)C1 (stereo not given) yielded a z-score of -0.165. In the case of COc1ccc(OCCSc2nnc(-c3ccc(OC)cc3)n2N)cc1, the z-score is reported as -0.364. Work on CCCCNC(=O)CCCCC(=O)N/N=C/c1ccccc1Cl yielded a z-score of -0.127. For O=C(C[n+]1cccc(CNC(=O)c2ccc(OC(F)F)cc2)c1)Nc1cc(C(F)(F)F)ccc1Cl, the z-score was -0.68. Work on Cc1cc(C(=O)COc2cccc(-n3cnnn3)c2)c(C)n1-c1ccccc1 yielded a z-score of -1.56. COc1ccc(N=C(N)N=C(N)N)c(OC)c1 was tested, and the z-score was -0.0657. With Cc1cc(C)n2nc(C(=O)NC(C)(C)C)nc2n1 the z-score was -0.0603. With CN(C)c1ccc(C(=O)OCc2ccccc2)cc1 the z-score was 0.372. Work on COc1ccc(CCN(C(=O)c2cccc(F)c2)C2CC(=O)N(c3ccc(OC)cc3)C2=O)cc1 (stereo not given) yielded a z-score of -0.0429. N#CCc1nn(-c2ccc(Cl)cc2)c(N)c1C#N was tested, and the z-score was -0.378. O=C(O)C1CCCCC1C(=O)Nc1ccc(F)cc1F (stereo not given) showed a z-score of -0.157. Cc1[nH]c(=O)[nH]c(=O)c1S(=O)(=O)Nc1ccc(Oc2ccccc2)cc1 was tested, and the z-score was -0.0615. With O=C(N/N=C1\C2CN3CCN(C2)CC1(c1ccccc1)C3)c1ccc(F)cc1 the z-score was -0.329. O=C(Nc1ccc2c(c1)OCO2)C1CCN(S(=O)(=O)c2ccc3c(c2)OCCO3)CC1 was tested, and the z-score was -0.0825. CCn1c(NCc2ccc(N(C)C)cc2)nc2ccccc21 showed a z-score of -0.103. With COc1ccc(NC(C)=O)cc1NC(=O)CN1CCN(S(=O)(=O)c2ccc(C(C)C)cc2)CC1 the z-score was 0.094. For CC(C(=O)NCc1ccc2c(c1)OCO2)N1c2cccc3cccc(c23)S1(=O)=O (stereo not given), the z-score was -0.249. NS(=O)(=O)c1ccc(CNC(=O)c2ccc(Cl)cc2[N+](=O)[O-])cc1 gave a z-score of -0.132. Molecule CC(=O)Nc1ccc(S(=O)(=O)N2CCCN(S(=O)(=O)c3ccc(NC(C)=O)cc3)CC2)cc1 has a z-score of 0.937. CCCc1cc(C(=O)Nc2c(C)n(C)n(-c3ccccc3)c2=O)no1 showed a z-score of 0.151. O=[N+]([O-])c1ccc(Cl)c(C2Nc3cccc4cccc(c34)N2)c1 was tested, and the z-score was -0.134. For COc1ccc(-c2nc(C)sc2CC(=O)O)cc1, the z-score was -0.33. Cn1c(=O)c2c(nc(NCc3ccccc3)n2CC(=O)NCc2ccccc2)n(C)c1=O showed a z-score of -0.514. Molecule CC(=O)Nc1ccc(NS(C)(=O)=O)cc1 has a z-score of -0.402. In the case of CCCCOc1ccc(CSc2n[nH]c(C)n2)cc1, the z-score is reported as 0.148. Work on Cc1cccc(-c2nc(CS(=O)CC(=O)N3CCc4ccccc4C3)c(C)o2)c1 (stereo not given) yielded a z-score of -0.163. O=C(N/N=C\c1cc(Br)cs1)C1COc2ccccc2O1 (stereo not given) showed a z-score of 2.32. Work on COc1ccc(CCCNC(=O)CC#N)cc1OC yielded a z-score of 0.881. Work on CCCCN(C)C(=O)c1cc2cc3ccc(OC)cc3nc2s1 yielded a z-score of -0.706. Work on O=C(Cn1cncn1)NCc1ccccc1Br yielded a z-score of -0.0211. Molecule O=C(CSc1nc2ccccc2o1)Nc1ccc(N2CCOCC2)c(Cl)c1 has a z-score of -0.431. Molecule O=C(Nc1ncc(Cc2ccccc2Cl)s1)C1=NCCN1 has a z-score of 0.0654. Cc1ccccc1C(=O)NCCSc1ccccc1 was tested, and the z-score was -0.203. COc1ccc(NC(=O)C(c2ccccc2)N(C)C(=O)CNC(C)=O)cc1 (stereo not given) was tested, and the z-score was 0.296. With Cc1ccc(NC(=S)c2nc3ccccc3[nH]2)c(C)c1 the z-score was active: 6.64. Cc1[nH]c2ccc(CNS(=O)(=O)c3ccc(S(=O)(=O)N4CCOCC4)cc3)cc2c1C showed a z-score of -0.355. O=C1CCCN1CCCNc1ncnc2c1[nH]c1ccc(Cl)cc12 showed a z-score of 1.76. For C/C(=N\Nc1nc(-c2ccc(C)cc2C)cs1)c1cc2ccccc2oc1=O, the z-score was 0.187. In the case of Cc1ccoc1C(=O)Nc1ccc(CC(=O)O)cc1, the z-score is reported as 0.152. In the case of CCSc1nnc(-c2cccnc2)n1-c1ccc(C)c(Cl)c1, the z-score is reported as -0.232. With COC(=O)CSc1nnc(-c2ccc(S(=O)(=O)NCc3cccs3)cc2)o1 the z-score was -1.93. Molecule Cc1ccc(C)c(N(CC(=O)NN=C2CCN(C)CC2)S(=O)(=O)c2ccccc2)c1 has a z-score of -0.242. In the case of CCC(C)c1ccc(NC(=S)Nc2ccc(OC)c(OC)c2)cc1 (stereo not given), the z-score is reported as active: 5.09. COc1cccc(/C=N/NC(=O)c2ccccc2)c1OS(=O)(=O)c1ccccc1 showed a z-score of -0.323. COc1ccc(N2CCN(Cc3nnc(-c4ccccc4)o3)CC2)cc1 was tested, and the z-score was -0.12. Cc1ccccc1Cn1nc(C)c(NC(=O)c2cc(-c3cccs3)on2)c1C showed a z-score of -0.614. Work on CC(C)Oc1ccc(Br)cc1/C=N\NC(N)=S yielded a z-score of 0.548. In the case of CC(C)CC(=O)NC(=S)Nc1nc(-c2ccc(Cl)cc2)cs1, the z-score is reported as 0.0823. In the case of CCn1c(COc2ccc(C)cc2)nnc1SCc1ccc(C#N)cc1, the z-score is reported as -0.0466. With COc1ccc(-c2ccnc(SCC(=O)N3CCOCC3)n2)cc1 the z-score was 0.325. Cc1cc2cc(CNC(=O)NC3CCCCC3)ccc2n1C showed a z-score of 0.959. Molecule CC1CCN(c2nc3c(c(=O)n(C)c(=O)n3C)n2CCSc2nc3ccccc3s2)CC1 has a z-score of -0.725.
